The text below walks through data of ChEMBL document CHEMBL4888484, “Replenishing the malaria drug discovery pipeline: Screening and hit evaluation of the MMV Hit Generation Library 1 (HGL1) against asexual blood stage Plasmodium falciparum ,using a nano luciferase reporter read-out” (2022).

Out of some 150,000 compounds screened, about 540 (0.36%) showed an effect of 50% or more. The list shows a part of the results.

This assay deals with Plasmodium falciparum. The assay can be described thus: Primary screen in NF54 nanoGlo assay, in single point, at 2uM, 72h; a lower Z score goes with more inhibition. Format: functional, Erythrocyte. The conditions noted are these: timepoint 72 hour.
Take `O=C1CCCN1c1ccc(CNC(=O)N2CCC[C@H]2CO)cc1`: the “% Inhibition” value is on record as -3% and the Z score was determined as 0.44.
Regarding `COCC(=O)Nc1nnc(CCCOc2ccccc2)s1`, the “% Inhibition” value is listed as -6% and the Z score came to 0.86.
On to `COCCc1cccc(-c2ccc([C@H]3OCCN[C@@H]3C)cc2)c1`, for which the “% Inhibition” value is listed as -10% and the Z score amounted to 2.02.
On the same counts, the results for `O=C([C@H]1CCCN(S(=O)(=O)c2ccc(-c3ccn[nH]3)o2)C1)N1CCCC1` are -11% and 1.26.
On to `c1cncc(-c2nc(-c3ccc4c(c3)OCO4)cs2)c1`, for which the “% Inhibition” value is 14% and the Z score is listed as -1.68.
Turning to `Cc1ccnn1CCc1nc(CC(N)=O)nn1-c1ccc(F)cc1F`, the “% Inhibition” value was found to be 1% and the Z score is recorded as -0.17.
`CC(C)Oc1cc(-c2cncnc2)nc(N)n1`: the “% Inhibition” value is 16% and the Z score was -2.03.
In the case of `O=C(C1CCC1)N1CCC[C@H]1c1nc(C2CCOCC2)no1`, the “% Inhibition” value is 34% and the Z score is reported as -0.45.
Regarding `CCCC[C@@H](C(=O)Nc1cc(C)on1)N(C)Cc1nc2ccccc2n1CC`, the “% Inhibition” value is recorded as -8% and the Z score is on record as 0.95.
`CCCNC(=O)N(Cc1cc(-c2cc(C)ccc2C)on1)C(C)C`: the “% Inhibition” value came to 2% and the Z score is on record as -0.24.
For `Cc1ccnc([C@@H](NC(=O)c2csc(-c3cccs3)n2)C2CC2)c1`, the “% Inhibition” value is listed as -13% and the Z score was determined as 2.29.
On to `COc1cccc(-c2cc3c(n(Cc4ccccn4)c2=O)CCN(Cc2ccc(CO)o2)C3)c1`, for which the “% Inhibition” value is on record as 1% and the Z score is listed as -0.14.
On the same counts, the results for `COc1ccc(C)cc1NC(=O)N1CCC[C@@H]1Cn1ccnc1C` are -3% and 0.59.
As for `Cc1cc(F)ccc1CS(=O)(=O)NC(=O)Cc1c[nH]c2ccccc12`, the “% Inhibition” value is recorded as -5% and the Z score stood at 0.66.
On the same counts, the results for `O=C(NC[C@@H]1CCCN2CCCCC12)c1ccc2scnc2c1` (stereo partly specified) are -5% and 0.61.
As to `CC(C)N1CCNC(=O)[C@@H]1Cc1nc(C2CCCC2)nn1CCO`, the “% Inhibition” value is -11% and the Z score was found to be 2.11.
As to `Cc1cccn2cc(C(=O)N[C@@H](C)c3noc(C(F)F)n3)cc12`, the “% Inhibition” value is reported as -6% and the Z score was determined as 1.18.
As for `O=C(Nc1cnc(-n2cccn2)nc1)c1ccccc1Cl`, the “% Inhibition” value is listed as -15% and the Z score was determined as 2.43.
The corresponding values for `C[C@H](NC(=O)Nc1ccc(N2CCOCC2)c(F)c1)c1ccncc1` are -10% and 0.94.
As to `CCc1c(C)sc(NC(C)=O)c1C#N`, the “% Inhibition” value is on record as -36% and the Z score was 4.25.
Take `COc1ccc(CC(=O)Nc2nn(C)c3nc4c(C)cccc4cc23)cc1`: the “% Inhibition” value is on record as -3% and the Z score worked out at 0.43.
As for `Cc1cc(O)ccc1NC(=O)C[C@H](NCC(C)C)C(=O)O`, the “% Inhibition” value stood at 4% and the Z score is recorded as -0.55.
The corresponding values for `CNc1ccc(C(=O)NC[C@H]2CCN(Cc3ccncc3)C2)cc1` are -6% and 0.65.
The corresponding values for `N[C@@H](Cc1ccccc1)C(=O)N1CCOC2CCCCC21` (stereo partly specified) are -15% and 2.28.
Take `CC(=O)NC1CN(C(=O)N[C@H]2CCN(c3ccc(Cl)cc3)C2)C1`: the “% Inhibition” value was -8% and the Z score worked out at 1.12.
On the same counts, the results for `Cc1ccc([C@@H]2CC(c3ccc(C)c(C)c3)=NN2C(=O)CN(C)C(=O)C2CCC2)cc1` are -18% and 1.71.
On the same counts, the results for `O=C(OCC(c1ccccc1)c1ccccc1)c1cccnc1` are 10% and -1.99.
The corresponding values for `COc1ccc(-c2ncnc(Oc3ccccc3OC)c2N)cc1OC` are -1% and 0.14.
As for `Cc1nc(N(C)C)nc(-c2cccc(-c3cc[nH]n3)c2)c1C`, the “% Inhibition” value is -20% and the Z score turned out to be 2.12.
Turning to `CCC(=O)N1CCc2cc(N3C[C@@H](C(=O)NCC(C)C)CC3=O)ccc21`, the “% Inhibition” value was -10% and the Z score is 1.57.
Take `CCCCS(=O)(=O)N1CC(S(=O)(=O)CC(C)C)C1`: the “% Inhibition” value was found to be 8% and the Z score is recorded as -0.96.
As for `O=C1NC2(CCCC2)C(=O)N[C@@H]1c1ccccc1`, the “% Inhibition” value is -2% and the Z score was determined as 0.4.
With `Cc1cncc(-c2csc(-c3ccco3)n2)c1`, the “% Inhibition” value is reported as -6% and the Z score is recorded as 1.02.
In the case of `Cn1c(C[C@H]2CN(C(=O)c3ccccc3)CC[C@H]2CC(=O)O)nc2ccccc21`, the “% Inhibition” value is on record as 8% and the Z score is -1.14.
On to `O=C(NCCO)Nc1ccc(OC(F)(F)F)c(Br)c1`, for which the “% Inhibition” value came to 28% and the Z score was -3.17.
On the same counts, the results for `Cn1cc(S(=O)(=O)N(Cc2ccccc2)c2ccncc2)cn1` are -10% and 1.97.
For `Cc1cn(CCn2ccnc2-c2cnc(-c3ccccc3C)s2)nn1`, the “% Inhibition” value came to 1% and the Z score is -0.18.
In the case of `Cc1cccnc1CN(C)C1CCN(Cc2cccnc2)CC1`, the “% Inhibition” value is -7% and the Z score was 1.23.
With `COCCc1ccccc1NCc1ccc2c(c1)OCCO2`, the “% Inhibition” value came out at 3% and the Z score is on record as -0.44.
Turning to `CCOc1ccc(CN2CCc3ncsc3C2)cc1F`, the “% Inhibition” value is -1% and the Z score is on record as 0.19.
For the compound `CN(Cc1cc(-c2ccccc2)no1)C(=O)CCc1ccc(=O)[nH]n1`, the “% Inhibition” value is reported as -10% and the Z score is listed as 1.32.
As to `COc1cc(C)sc1C(=O)Nc1cccc(Oc2cccnn2)c1`, the “% Inhibition” value is -23% and the Z score was 4.08.
The corresponding values for `CCC[C@H]1CN(CCOc2ccc(F)cc2)C[C@@H]1N(C)C` are 1% and -0.14.
